In PubChem BioAssay AID1240 (Sanford-Burnham Center for Chemical Genomics, 2008):
The campaign covered roughly 50,000 compounds. About 800 (1.6%) showed an effect of 50% or more. This is one part of the list.

target: Bcl-2-like protein 10 (Homo sapiens) (UniProt Q9HD36); assay: Phenotype converters, Bcl-B/TR3 peptide binding displacement, primary biochemical FP (AID 1240); conditions: GST-Bcl-B / FITC-TR3 peptide fluorescence polarization; stronger effect = higher value; compound at 3.75 mg/L;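 note: 0% = Bcl-B with tracer peptide and DMSO and 100% = tracer peptide lacking Bcl-B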
Chain of UniProt Q9HD36 (Q9HD36 whole entry, looked up): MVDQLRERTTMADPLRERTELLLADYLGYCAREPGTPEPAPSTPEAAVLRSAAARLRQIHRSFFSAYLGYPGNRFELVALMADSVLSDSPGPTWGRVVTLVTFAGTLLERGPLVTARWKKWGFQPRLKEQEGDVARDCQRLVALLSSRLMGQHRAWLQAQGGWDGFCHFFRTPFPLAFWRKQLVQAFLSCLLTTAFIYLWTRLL

Row | Structure (SMILES) | displacement [%]
1 | O=C1C=C(Nc2ccc(Cl)cc2)CN1 | 11.6
2 | COc1cc(N=Cc2c(O)n(C)c(=O)n(C)c2=O)cc(OC)c1OC | -3.2
3 | CN(C)CCSc1nc(O)c(-c2ccccc2)c(=O)[nH]1 | -4.8
4 | CC1C(=O)C(C)C(c2ccc(Cl)cc2)NC1c1ccc(Cl)cc1 (stereo not given) | -8.6
5 | COc1ccc(CCN2C(=O)/C(=C\c3ccc(C(C)C)cc3)SC2=S)cc1OC | -0.4
6 | CCCCCN(CCCCC)C(=O)c1ccccc1C(=O)Nc1ccccc1 | 15.4
7 | Cc1c(NC(=O)COc2ccccc2[N+](=O)[O-])cccc1-c1nc2ncccc2o1 | -2.9
8 | O=C(COc1ccccc1[N+](=O)[O-])Nc1ccc2oc(-c3ccc(Cl)cc3)nc2c1 | 5.7
9 | O=C1NC(=S)S/C1=C/c1ccc(OCc2ccc(Cl)cc2)cc1 | 34.3
10 | N/C(=N\c1nc(C(F)(F)F)cc(=O)[nH]1)Nc1cccc2ccccc12 | -0.2
11 | CCOC(=O)CC(=O)NC(C)(C)Cc1ccc(O)cc1 | -2.1
12 | Cn1cc(/C=C2/SC(=Nc3ccccc3)NC2=O)c2ccccc21 | -2.7
13 | O=c1cc(-c2cc(O)c3c(O)c4ccccc4c(O)c3c2O)c(=O)c2c(=O)c3ccccc3c(=O)c1=2 | 40.9
14 | C/C(=N/N1CCN(Cc2ccccc2)CC1)c1ccc(Br)cc1 | -14.1
15 | CCC(C)c1ccc(OCCOc2ccc(C=C3C(=O)NC(=S)NC3=O)cc2)cc1 (stereo not given) | 7.7
16 | CC12CC3(C)CC(C)(C1)CC(C(N)=O)(C2)C3 | 11.6
17 | O=C(c1ccccc1)c1cc2c(cc1Br)OCCO2 | -2.3
18 | O=C(NCCC(c1ccccc1)c1ccccc1)c1ccccc1[N+](=O)[O-] | 5.4
19 | COc1cc(/C=N/N2C(=O)C3C4C=CC(CC4)C3C2=O)cc(I)c1OC (stereo not given) | 18.1
20 | CC1CCCN(C(=S)SCC(=O)c2cc(Br)cc(Br)c2O)C1 (stereo not given) | 8.2
21 | COC(=O)c1c(-c2ccc(F)cc2)csc1NC(=O)c1ccc(OC(C)C)cc1 | 10.6
22 | O=C(Nc1ccccc1C(=O)O)c1cccc(N2C(=O)c3ccccc3C2=O)c1 | -10.3
23 | COc1ccc(CN2CCN(Cc3cc(OC)ccc3O)CC2)cc1 | 0.8
24 | Cc1ccc(S(=O)(=O)NC(Cc2ccccc2)C(=O)Nc2ccc(F)cc2)cc1 (stereo not given) | -16.4
25 | C/C(=C\C(=O)OCCOCCOC(=O)/C=C(\C)NC1CC(C)(C)NC(C)(C)C1)NC1CC(C)(C)NC(C)(C)C1 | 2.8
26 | CCNC(=O)CN(c1ccc(OC)cc1)S(=O)(=O)c1ccc(C)cc1 | 5
27 | CC(=O)NC1=NC(=O)/C(=C\c2ccc(C)o2)S1 | 96

Row | Structure (SMILES) | displacement [%]
28 | O=C1C(=O)N(CC2CCCO2)C(c2ccccc2F)/C1=C(/O)c1ccccc1 (stereo not given) | -6.1
29 | O=C(Cc1ccc(F)cc1F)Nc1ccc(Br)cc1 | 10
30 | CN(C)c1ccc(/C=C(\NC(=O)c2ccc([N+](=O)[O-])cc2)C(=O)NN)cc1 | -54.2
31 | CC(C)(C)c1ccc(S(=O)(=O)N=C2C=CC(=O)C=C2)cc1 | 7.4
32 | CC(/C=C1\SC(=S)N(C(C(=O)O)c2ccccc2)C1=O)=C\c1ccccc1 (stereo not given) | 7
33 | COc1cccc(NC(=O)c2ccc(CN3CCN(c4ccccc4)CC3)cc2)c1 | -3.2
34 | COc1ccc2nc(NS(=O)(=O)c3ccc(Cl)cc3)c(Nc3ccc4[nH]c(=O)[nH]c4c3)nc2c1 | -2.9
35 | CCOC(=O)CSc1nc2sc(C)c(C)c2c(=O)[nH]1 | -1.5
36 | O=c1/c(=C\c2ccc(OCc3ccccc3)c(Br)c2)sc2nc3ccccc3n12 | -19.7
37 | O=C1C(=O)N(Cc2ccccc2)C(c2cccc([N+](=O)[O-])c2)/C1=C(/O)c1ccccc1 (stereo not given) | -2.6
38 | O=C1CC(N2CCOCC2)C(=O)N1CCc1ccccc1 (stereo not given) | -1.1
39 | COc1ccc(C(=O)N/C(=C\c2cccc([N+](=O)[O-])c2)C(=O)NCC2CCCO2)cc1 (stereo not given) | 10.3
40 | O=C(CSc1nc2sc3c(c2c(=O)[nH]1)CCCC3)NCc1ccco1 | 59.8
41 | CC(=O)Oc1ccc(-c2cccc(C(=O)Oc3ccccc3)c2)cc1 | 9.8
42 | CCOC(=O)c1c(N)sc2c1CCCCCC2 | 1.7
43 | CC(=O)C1=C(O)C(=O)N(c2nc3ccccc3s2)C1c1ccccc1F (stereo not given) | -8.5
44 | COc1ccc(Br)cc1C(=O)Nc1ccc(OC(F)(F)F)cc1 | 1.4
45 | CC(C)C(=O)Nc1ccc(Oc2ccc(C(=O)O)c(C(=O)O)c2)cc1 | 12.4
46 | O=C(COc1cccc2ccccc12)Nc1cccnc1 | -3.1
47 | COc1ccc(CCNc2cc(N3CCN(C(=O)c4ccccc4F)CC3)ccc2[N+](=O)[O-])cc1OC | 13.1
48 | CCOC(=O)/C(C#N)=C1/C=Cc2ccccc2N1CC | 17.9
49 | CCc1nnc(NC(=O)C(CC)c2ccccc2)s1 (stereo not given) | 24.6
50 | COC(=O)C1=C(C)N(C)C(C)=C(C(=O)OC)C1c1ccncc1 | -14.8
51 | COC(=O)C1=NN(C(=O)c2cccc(Br)c2)C(O)(c2ccccc2)C1 (stereo not given) | -11.3
52 | CCO/C=N/C1=C(C#N)C(c2ccccc2)C2=C(CC(C)(C)CC2=O)O1 (stereo not given) | 4.5
53 | CC(C)(C)c1ccc(OCC(=O)N2CCN(c3ccccn3)CC2)cc1 | -10.9
54 | O=C(COc1ccc2ccccc2c1)NCc1ccccc1Cl | -6.9

Row | Structure (SMILES) | displacement [%]
55 | CC(=O)n1cc(/C=C2\N=C(c3ccc(C(C)(C)C)cc3)OC2=O)c2ccccc21 | 72.1
56 | O=C(COc1ccc(Cl)cc1)NCCc1cccc(Cl)c1 | 0.4
57 | COC(=O)C1=C(C)N(c2ccc(Br)cc2)/C(=C\c2ccc(OCC(=O)Nc3ccccc3OC)cc2)C1=O | 20.3
58 | COc1ccc(CN2CCN(C(=O)c3ccc([N+](=O)[O-])cc3)CC2)cc1OCc1ccccc1 | -6.8
59 | O=S(=O)(/N=C/c1ccccc1)c1cccs1 | 10.5
60 | CCOc1ccc(C2/C(=C(\O)c3ccc(Cl)cc3)C(=O)C(=O)N2CCCn2ccnc2)cc1 (stereo not given) | 5.1
61 | COc1ccc(S(=O)(=O)N/N=C/c2c(C)[nH]c3ccccc23)cc1 | 15.9
62 | Cc1c(N(CC(=O)O)S(=O)(=O)c2ccccc2)c(=O)n(-c2ccccc2)n1C | 12.9
63 | O=C(O)CCN1C(=O)/C(=C/c2ccc(Cl)cc2Cl)SC1=S | 11.1
64 | CCC(C)C(C(=O)Nc1ccc(I)cc1)N1C(=O)c2ccccc2C1=O (stereo not given) | 11.2
65 | C=COCCNC(=O)C(=O)Nc1ccc(OC)cc1 | 5.6
66 | C=CCN1C(=O)/C(=C/c2ccccc2Cl)C(=O)NC1=S | -3.5
67 | O=C(O)C1CCCCC1C(=O)Nc1nccs1 (stereo not given) | -2.5
68 | Cc1ccc(OCCCCCCN2CCCC2)cc1 | -5.3
69 | COc1ccc(/C=C2\C(=O)NC(=S)N(c3ccc(Br)cc3C)C2=O)cc1[N+](=O)[O-] | 16.4
70 | O=C1CN(C(=O)c2cc([N+](=O)[O-])c(N3CCCCC3)c([N+](=O)[O-])c2N2CCCCC2)c2ccccc2N1 | 1.8
71 | O=c1n(Cc2ccccc2Cl)c2cc(N3CCOCC3)c([N+](=O)[O-])cc2n1Cc1ccccc1Cl | -9.7
72 | COC(=O)c1ccc(N2C(=O)CC(NCCc3ccc(OC)cc3)C2=O)cc1 (stereo not given) | 8.7
73 | CCn1c2c(c3cc(C(=O)O)ccc31)CCCC2=O | 9
74 | COC(=O)CSc1nc2c(c(C3CC=CCC3)c1C#N)CCC2 (stereo not given) | 1
75 | O=C1/C(=C\c2cccc(C(F)(F)F)c2)SC(=S)N1c1ccccc1 | 18
76 | O=S1(=O)N=C(Oc2ccc(Cl)cc2)c2ccccc21 | -5.3
77 | C/C(=N\Nc1cc(-n2cc(C)cn2)ncn1)c1ccc(Cl)c(Cl)c1 | -9.7
78 | O=C(/C=C\c1cccs1)NC(=S)Nc1ccc([N+](=O)[O-])cc1O | -5.4
79 | CC1(C)Nc2ccccc2-c2c1ssc2=NC1CCCCC1 | -10.4
80 | O=C1S/C(=C\c2cccs2)C(=O)N1c1cccc(Cl)c1 | 23.6
81 | O=C1C(=O)N(CCO)C(c2ccc(Br)cc2)/C1=C(\O)c1ccc(Cl)cc1 (stereo not given) | 13

Row | Structure (SMILES) | displacement [%]
82 | CCOc1cc(OCC)cc(C(=O)Nc2ccc(N3CCOCC3)c(Cl)c2)c1 | 7.1
83 | Cc1cc(Cl)ccc1OC(C)C(=O)NCCC1=CCCCC1 (stereo not given) | 7
84 | C/C(=C\C(=O)c1ccc(Cl)cc1)Nc1ccc(Br)c(Cl)c1 | -6.6
85 | CC(=O)Nc1ccc(NC(=O)c2ccc(C(F)(F)F)cc2)cc1 | 12.7
86 | COc1cc(/C=N/NC(=O)CC2(C)OCCO2)cc(Br)c1OCc1cccc2ccccc12 | -2.1
87 | O=C(Nc1ccc(-c2nc3ccccc3[nH]2)cc1)c1cccc(Br)c1 | -2.5
88 | Cc1cc2nc(-c3ccc(N)cc3)oc2cc1C | -1.5
89 | CCN(CC)c1ccc(NC(=O)c2ccc(Br)o2)cc1 | 6.2
90 | Cc1cc(C)cc(N2C(=O)NC(=O)/C(=C\c3ccc(I)o3)C2=O)c1 | 28.7
91 | COc1cc(C2NC(=S)NC(C)=C2C(=O)Nc2ccc(Cl)cc2)ccc1O (stereo not given) | 11.1
92 | CCOc1ccc(NC(=O)c2cnn(-c3ccccc3)c2NC(=O)c2ccc(C)cc2)cc1 | 14.4
93 | O=C1NC(=O)N(c2ccc(Cl)cc2)C(=O)/C1=C/c1ccc(-c2ccc(Cl)cc2[N+](=O)[O-])o1 | 10.6
94 | O=[N+]([O-])c1cccc(S(=O)(=O)NCc2ccc3c(c2)OCO3)c1 | 3.8
95 | COc1cc(C(=O)N2CCN(C3CCCC3)CC2)cc(OC)c1OC | -14
96 | O=C1NC(=S)NC(=O)C1=Cc1cc(Cl)c(OCc2ccc(C(=O)O)cc2)c(Cl)c1 | 8.5
97 | CCOC(=O)c1cnc2cc(-c3cccs3)[nH]n2c1=O | 11.2
98 | O=C(COc1ccccc1Cl)NNC(=O)c1ccc2ccccc2c1 | -9.4
99 | Cc1cc(Cl)ccc1OCCCN1CCOCC1 | 12.4
100 | CC(=O)Nc1ccc(Oc2ccc(C(=O)O)c(C(=O)O)c2)cc1 | 0.3
101 | Cc1n[nH]c(C)c1CCCCCCOc1cccc(Cl)c1 | 11.1
102 | CC(C)Cn1c(CCCN2C(=O)c3ccccc3C2=O)nc2ccccc2c1=O | 1.7
103 | O=C(Nc1scc(-c2ccccc2)c1C(=O)O)c1ccccc1F | 16.4
104 | C=CCn1c2ccccc2c2nnc(SCC(=O)N=C3NC(=O)CS3)nc21 | 49.7
105 | CC(C)COc1ccc(C(=O)Nc2ccccc2[N+](=O)[O-])cc1 | 3.7
